The values that follow come from the supplement of paper PMC5499739.

In all, about 16,000 sequences were measured (“Z-score”: median about -0.37, highest 2% from about 3.1 on). This is one part of the list.

The test has as its system RBM10 RRM1-ZnF-RRM2 (GST-tagged construct). In words: RNAcompete 7-mer binding Z-score; higher = stronger binding preference. In a few lines: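 GST-tagged RBM10 constructs (20 pmol) and a designed pool of 241 399 RNAs up to 41 nt (1.5 nmol) were allowed to bind for 30 min at 4°C in 1 ml Hepes pH 7.8 buffer with glutathione Sepharose beads. After four 2-min washes at 4°C, bound RNA was identified by microarray hybridisation. Enrichment was scored per heptamer motif as a one-sided Z-score across the probes containing it.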
In the case of UGCGGGU, the “RNAcompete 7-mer binding Z-score” value stood at 2.48.

As to ACUCAGA, the “RNAcompete 7-mer binding Z-score” value was -0.541.

Regarding UGCGCAA, the “RNAcompete 7-mer binding Z-score” value is -0.358.

With CACACAU, the “RNAcompete 7-mer binding Z-score” value is -0.646.

GCGAUUA: the “RNAcompete 7-mer binding Z-score” value is -0.271.

Take UGGAGAU: the “RNAcompete 7-mer binding Z-score” value stood at 1.33.

Regarding CAGCAUU, the “RNAcompete 7-mer binding Z-score” value is -0.519.

For the sequence UAUGCCU, the “RNAcompete 7-mer binding Z-score” value is -0.861.

Take CACAAUG: the “RNAcompete 7-mer binding Z-score” value was -0.249.

Consider CUCAACG, for which the “RNAcompete 7-mer binding Z-score” value was -0.643.

In the case of UCCUCAG, the “RNAcompete 7-mer binding Z-score” value was -0.752.

For CCGUCGA, the “RNAcompete 7-mer binding Z-score” value is -0.584.

With GGCUGAG, the “RNAcompete 7-mer binding Z-score” value was found to be 0.945.

Turning to GAUGUUA, the “RNAcompete 7-mer binding Z-score” value is -0.282.

On to ACGAUCG, for which the “RNAcompete 7-mer binding Z-score” value was -0.184.

Consider CCCGCCC, for which the “RNAcompete 7-mer binding Z-score” value is -0.573.

Regarding GUGUCUG, the “RNAcompete 7-mer binding Z-score” value was -0.0634.

As for UUAUUCG, the “RNAcompete 7-mer binding Z-score” value is -0.708.

For the sequence GGCCGCA, the “RNAcompete 7-mer binding Z-score” value was -0.311.

For GCAGACC, the “RNAcompete 7-mer binding Z-score” value was -0.202.

For the sequence GAAGGAG, the “RNAcompete 7-mer binding Z-score” value is 4.52.

Turning to UGCACGA, the “RNAcompete 7-mer binding Z-score” value was -0.227.

For ACAUGAC, the “RNAcompete 7-mer binding Z-score” value is -0.551.

As for CUUGCGG, the “RNAcompete 7-mer binding Z-score” value was -0.235.

For the sequence ACCGAGC, the “RNAcompete 7-mer binding Z-score” value was -0.49.

For AUGUCCC, the “RNAcompete 7-mer binding Z-score” value is -0.668.

Take CGGGGCC: the “RNAcompete 7-mer binding Z-score” value worked out at 0.629.

As to CACUCGG, the “RNAcompete 7-mer binding Z-score” value is -0.136.

AAUACUG: the “RNAcompete 7-mer binding Z-score” value was -0.311.

Regarding AUUAUGC, the “RNAcompete 7-mer binding Z-score” value was -0.395.

Regarding ACAUUAG, the “RNAcompete 7-mer binding Z-score” value was -0.242.

With CUGUCAU, the “RNAcompete 7-mer binding Z-score” value was -0.723.

Take UUGUGAG: the “RNAcompete 7-mer binding Z-score” value stood at 0.388.

In the case of GUCGAGU, the “RNAcompete 7-mer binding Z-score” value was determined as 0.122.

For GUGACGC, the “RNAcompete 7-mer binding Z-score” value is 0.392.

Regarding GUGUCCA, the “RNAcompete 7-mer binding Z-score” value was -0.362.

Take CAUACUG: the “RNAcompete 7-mer binding Z-score” value is -0.588.

As to CCAGGAC, the “RNAcompete 7-mer binding Z-score” value worked out at 0.148.

Regarding CCCACCU, the “RNAcompete 7-mer binding Z-score” value was -0.755.

Take GGCUACU: the “RNAcompete 7-mer binding Z-score” value was -0.358.

For the sequence UAUUCAA, the “RNAcompete 7-mer binding Z-score” value was -0.606.

Regarding CCGACAA, the “RNAcompete 7-mer binding Z-score” value was -0.763.

Turning to UUCUAGC, the “RNAcompete 7-mer binding Z-score” value is -0.795.

Regarding CAUGACG, the “RNAcompete 7-mer binding Z-score” value is -0.315.

With CCAUCAA, the “RNAcompete 7-mer binding Z-score” value was -0.643.

For the sequence GACGAGG, the “RNAcompete 7-mer binding Z-score” value is 2.77.

For GGGCUAA, the “RNAcompete 7-mer binding Z-score” value was 1.19.

Consider ACCCAGU, for which the “RNAcompete 7-mer binding Z-score” value was -0.639.

For GACGAGA, the “RNAcompete 7-mer binding Z-score” value was found to be 0.691.

Regarding GGCUGAU, the “RNAcompete 7-mer binding Z-score” value is 0.184.

With CUCGGGG, the “RNAcompete 7-mer binding Z-score” value came to 1.05.

For GCCAUUG, the “RNAcompete 7-mer binding Z-score” value was -0.551.

Turning to UAUGCGU, the “RNAcompete 7-mer binding Z-score” value is -0.296.

GUCACUA: the “RNAcompete 7-mer binding Z-score” value is -0.278.

In the case of AGACCGC, the “RNAcompete 7-mer binding Z-score” value was -1.12.

Consider GAAAUAG, for which the “RNAcompete 7-mer binding Z-score” value came to 0.818.

As for ACCCGCG, the “RNAcompete 7-mer binding Z-score” value is -0.431.

With AAAUGAA, the “RNAcompete 7-mer binding Z-score” value was -0.151.

As for AGUACCG, the “RNAcompete 7-mer binding Z-score” value is 0.0495.

In the case of GUGACCA, the “RNAcompete 7-mer binding Z-score” value is 0.337.

As to GGUCAAA, the “RNAcompete 7-mer binding Z-score” value stood at 0.144.

CGGAACG: the “RNAcompete 7-mer binding Z-score” value was 0.8.

In the case of AUCAUCU, the “RNAcompete 7-mer binding Z-score” value was -0.97.

In the case of UACCGCA, the “RNAcompete 7-mer binding Z-score” value is -0.635.

On to CAUGUCA, for which the “RNAcompete 7-mer binding Z-score” value was -0.646.

GUGCCAC: the “RNAcompete 7-mer binding Z-score” value is -0.147.

With AUCUGGU, the “RNAcompete 7-mer binding Z-score” value was -0.34.

Regarding ACGUACC, the “RNAcompete 7-mer binding Z-score” value is -0.544.

As to AGGAAGG, the “RNAcompete 7-mer binding Z-score” value amounted to 4.46.

GUACCAA: the “RNAcompete 7-mer binding Z-score” value amounted to 0.119.

With CUUUAGC, the “RNAcompete 7-mer binding Z-score” value was -0.916.

For the sequence CGGUGUU, the “RNAcompete 7-mer binding Z-score” value is -0.253.

With UGAUGGU, the “RNAcompete 7-mer binding Z-score” value is 1.26.

For the sequence UGCUUUA, the “RNAcompete 7-mer binding Z-score” value is -0.766.

Regarding ACCGACC, the “RNAcompete 7-mer binding Z-score” value was -0.876.

For the sequence GCAUUCC, the “RNAcompete 7-mer binding Z-score” value was -0.675.

With AUCCGUA, the “RNAcompete 7-mer binding Z-score” value was -0.686.

Take CCUUAGG: the “RNAcompete 7-mer binding Z-score” value was -0.256.

In the case of AUGCGCU, the “RNAcompete 7-mer binding Z-score” value was -0.537.

With AUAACUU, the “RNAcompete 7-mer binding Z-score” value is -0.358.

Consider GUUUUUC, for which the “RNAcompete 7-mer binding Z-score” value was -0.347.

On to GGAUGCG, for which the “RNAcompete 7-mer binding Z-score” value turned out to be 2.03.

As for CGGAAGU, the “RNAcompete 7-mer binding Z-score” value was 0.716.

With CAACGCC, the “RNAcompete 7-mer binding Z-score” value was -0.537.

In the case of UUUAUCC, the “RNAcompete 7-mer binding Z-score” value is -0.719.

With ACGUGAG, the “RNAcompete 7-mer binding Z-score” value came out at 0.738.

Turning to CUAAGGC, the “RNAcompete 7-mer binding Z-score” value was -0.0816.

Regarding CUACACG, the “RNAcompete 7-mer binding Z-score” value was -0.613.

Regarding GAACUCC, the “RNAcompete 7-mer binding Z-score” value was -0.606.

On to GUGGGGC, for which the “RNAcompete 7-mer binding Z-score” value was 3.47.

In the case of CUUCUCC, the “RNAcompete 7-mer binding Z-score” value was -0.912.

On to CGCAUUC, for which the “RNAcompete 7-mer binding Z-score” value is -0.723.

For AAAGGCA, the “RNAcompete 7-mer binding Z-score” value worked out at 1.85.

Turning to AAUCCAG, the “RNAcompete 7-mer binding Z-score” value was -0.329.

For the sequence GGGCACA, the “RNAcompete 7-mer binding Z-score” value came out at 1.39.

With AGGGCAC, the “RNAcompete 7-mer binding Z-score” value worked out at 0.935.

Consider CCGCUCC, for which the “RNAcompete 7-mer binding Z-score” value is -0.694.

For ACCGCGC, the “RNAcompete 7-mer binding Z-score” value is -0.417.

With GAUUGAA, the “RNAcompete 7-mer binding Z-score” value was 0.359.

For AUCUAGU, the “RNAcompete 7-mer binding Z-score” value was -0.653.

With UGGAGGA, the “RNAcompete 7-mer binding Z-score” value was 2.95.

In the case of CAUCCAU, the “RNAcompete 7-mer binding Z-score” value was -0.752.

On to UCAAGAA, for which the “RNAcompete 7-mer binding Z-score” value was -0.406.

For CGCUCAC, the “RNAcompete 7-mer binding Z-score” value was -0.592.

UAUACGC: the “RNAcompete 7-mer binding Z-score” value was -0.686.

For the sequence CCGUCAG, the “RNAcompete 7-mer binding Z-score” value is -0.621.

On to GAUCAAG, for which the “RNAcompete 7-mer binding Z-score” value stood at 0.341.

On to UAUUCGG, for which the “RNAcompete 7-mer binding Z-score” value is -0.26.

As for AGGCGAC, the “RNAcompete 7-mer binding Z-score” value is 0.355.

Regarding GCGCUAU, the “RNAcompete 7-mer binding Z-score” value was -0.344.

For GGAUCUG, the “RNAcompete 7-mer binding Z-score” value was -0.00877.

As to GAAUGGC, the “RNAcompete 7-mer binding Z-score” value came to 1.68.

Consider GGACUAC, for which the “RNAcompete 7-mer binding Z-score” value was 0.224.

GUGGCGU: the “RNAcompete 7-mer binding Z-score” value is 1.36.

Consider CAUAUCC, for which the “RNAcompete 7-mer binding Z-score” value was -0.588.

Turning to CUCGUCC, the “RNAcompete 7-mer binding Z-score” value is -0.872.

As for AUGAAAU, the “RNAcompete 7-mer binding Z-score” value is -0.187.
